# Among all 150,000 compounds or so, about 540 (0.36%) showed an effect of 50% or more. The list shows a part of the results.
# Tested on: Plasmodium falciparum
# Assay: Primary screen in NF54 nanoGlo assay, in single point, at 2uM, 72h; a lower Z score goes with more inhibition
# Type: functional, Erythrocyte
# Conditions: timepoint 72 hour
SMILES,% Inhibition [%],Z score
CC1(C)OCC[C@@H]1NS(=O)(=O)c1ccc2c(c1)OCCO2,-16,1.38
CCCn1ncc(CN2CCO[C@H](C(N)=O)C2)c1C,-16,1.49
CCn1c([C@](O)(c2ccccc2)c2ccc(C)cc2)nc2ccccc21,-5,0.61
CCCN(CC1CC1)C(=O)Nc1cccc2ccccc12,6,-1.09
CN(c1ncnc2ccc(Cl)cc12)C1CCCC1O (centres undefined),-9,1.11
C[C@@H](C1CCN(C(=O)Cc2ccc(O)c(F)c2)CC1)N1CCCC1,-16,1.88
CC(C)NC(=O)N1CCC2(CC1)C[C@@H](Cc1cccc(F)c1)CCO2,-1,0.08
CC1CCN(C(=O)c2cnn(C3CCCNC3)c2)c2c(O)cccc21 (centres undefined),-3,0.36
Cc1ccc(S(=O)(=O)N2C[C@@H]3OCC(=O)N(Cc4ccc(F)cc4)[C@@H]3C2)cc1,-8,1.28
Cn1ccc2cc(CCC(=O)N3CCCC3)ccc21,-10,1.6
Cc1cc(Cl)cc2c(N3CCOC[C@@H](CN(C)C)C3)ccnc12,-7,1
Cc1ncsc1C(=O)Nc1cccc2nccn12,-8,1.24
COc1cccc(C(=O)N2CC[C@@H]3CN(S(C)(=O)=O)[C@@H]3C2)c1C,-8,1.06
COC1CCCC1C1COCCN1CCN1CCCS1(=O)=O (centres undefined),-12,2.16
CC(=O)NCC(=O)N(c1ccc(C)cc1)C1(C(=O)Nc2ccccc2C)CCCCC1,9,-1.46
c1cncc(CCNc2ncnc3sccc23)c1,-1,0.16
CC(C)(C)c1cc(CN2CCc3[nH]cnc3[C@@H]2c2ccsc2)n[nH]1,-11,1.45
CC(C)c1nccc(N[C@H]2CCC[C@@H]2N(C)C)n1,-6,0.79
CCN(CC)c1ccc(NC(=O)[C@H](C)Oc2ccc(=O)n(-c3ccc(C)c(C)c3)n2)c(C)c1,-2,0.39
Cc1c(C(=O)NCc2ccnc(-n3ccnc3C)c2)oc2c1C(=O)CC(C)(C)C2,-1,0.19
CCCc1cc([C@@H]2CCCN2Cc2c[nH]nc2-c2ccc(OC)c(OC)c2)no1,-10,1.35

SMILES,% Inhibition [%],Z score
CCN1CC[C@@]2(CCC1=O)CN(C/C=C/c1ccc(OC)cc1)CCN2C,5,-0.97
Cc1nc(C)c(Cc2cccc(C(F)(F)F)c2)c(N2CCN(C(=O)c3ccc(Cl)c(Cl)c3)CC2)n1,-10,1.06
Cc1ccc(OC[C@H]2CN3CCOB(OCC3)O2)cc1,-4,0.52
CC(=O)c1ccc(NC(=O)CNc2ccc([C@@H](C#N)c3ccccc3)c(Cl)c2)cc1,14,-1.75
O=C(O)CCCN(Cc1cccc(Cl)c1)Cc1cnc2n1CCC2,9,-1.22
O=C(O)c1ccccc1-c1c(-c2ccccc2)ncn1C[C@H]1COCCO1,3,-0.58
CC1CC(CNC(=O)C(C)n2ccc3ccccc3c2=O)CC(C)O1 (centres undefined),-14,3.01
CCc1cccc(C)c1NC(=O)C(CC)CC,-11,2.1
CC(=O)Nc1cccc(C(=O)N(c2ccc(C)cc2)C2(C(=O)Nc3c(C)cccc3C)CCCCC2)c1,-22,2.91
C[C@H](NC(=O)c1c[nH]nc1-c1ccccc1)c1ccccn1,2,-0.27
Cc1nn(C)cc1C(=O)N1CCC[C@@]2(CCC(=O)N(Cc3cccnc3)C2)C1,12,-1.11
C=C(C)CNC(N)=NCc1cc(F)ccc1Br,2,-0.22
Cc1cc(S(=O)(=O)N(CCO)CCO)sc1C,-14,1.38
Cc1nn(C)c(C)c1CC(=O)NC1(c2ccccc2F)COC1,-17,1.68
Cn1nccc1C1CC2CCC(C1)N2S(=O)(=O)C1CC1 (centres undefined),-3,0.29
CC(C)C1(CNC(=O)C[C@H](c2nccn2C)C(F)(F)F)CC1,3,-0.37
CN(Cc1ccc2c(c1)OCCO2)c1ncccc1C(N)=O,-2,0.35
COc1ccc(-c2cnc(N)nc2)c(-n2nc(C)cc2C)c1,-2,0.2
CN(Cc1cc(C#N)n(C)c1)C[C@H]1CCCO1,0,0.06
CCCCN(C)C(=O)c1cc(NS(=O)(=O)c2ccc(F)cc2)ccc1N1CCNCC1,-17,2.01
CN(c1ccccc1)c1cc(C(=O)O)ncn1,-1,0.13
